# Laboratory results: PubChem BioAssay AID686978 (National Center for Advancing Translational Sciences (NCATS), 2013)
# In all, about 420,000 compounds went through this assay and about 64,000 (15%) were called active. Inconclusive results, whose numbers are uncertain, are shown with a selection of clear calls. The call rests on the fitted dose curve; in most records, active means well fitted inhibition curve with a large enough effect; inconclusive means small, poorly fitted or top-dose-only effect; inactive means flat fitted curve, though single readings scatter. No potency is given beside an inconclusive call; the fits are too rough.
# Assay: qHTS for Inhibitors of human tyrosyl-DNA phosphodiesterase 1 (TDP1): qHTS in cells in absence of CPT; further: nearly all actives have a fitted effect of over 55% in size
# Settings: DT40 Tdp1-/- hTDP1 cells, no CPT, ATP luminescence, 48 h; activity change, negative = growth inhibition: at 46.2 µM (top of the series)
# How it was run: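 DT40 Tdp1-/-;hTDP1 cells, no CPT (DMSO vehicle only), 400 cells/well; compounds pin-transferred; ≥48 hr, 37 °C; CellTiter-Glo 30 min RT dark, luminescence read.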
# On the % scale 0 is the no-effect control and ±100 the full control effect; potency means the concentration at half of the fitted maximal effect; tags describe the fitted curve by direction and shape.
SMILES,Potency,"activity change, negative = growth inhibition"
CC(=O)Nc1ccc(NC(=O)C(C)OC(=O)C2(c3ccc(Cl)cc3)CCCC2)cc1 (stereo unspecified),"inconclusive [inhibitor, single point]",
CSCCC(NS(=O)(=O)c1ccc2c(c1)oc(=O)n2C)C(=O)Nc1ccc(Cl)cc1 (stereo unspecified),"inconclusive [inhibitor, single point]",
COCCCn1c(-c2ccccc2Cl)n[nH]c1=S,inactive,
O=C(Nc1ccccc1)c1nsnc1C(=O)Nc1ccccc1,"inconclusive [inhibitor, partial curve, poor fit]",
Cc1ccc(NC(=S)N2CCc3[nH]c4ccccc4c3C2)cc1,"inconclusive [inhibitor, partial curve]",
Cc1cc(=O)c2c(O)c(O)ccc2o1,,inconclusive: -35.5% [inhibitor]
CCOC(=O)c1nnn(-c2nonc2N)c1CSc1ccc(C)cc1,"inconclusive [inhibitor, single point]",
COc1ccc(NC(=O)Cn2c(=O)n(Cc3ccc4c(c3)OCO4)c(=O)c3ccc(C(=O)NC4CCCCC4)cc32)cc1,active: 7.31 µM,
COc1ccc2[nH]c3c(c2c1)CCN1C(=O)N([C@@H](C)C(=O)NCc2ccc(F)cc2)C(=O)[C@]31C,"inconclusive [inhibitor, single point]",
CCOCCn1c(CN2CCN(c3ccccc3)CC2)nc2c1c(=O)n(C)c(=O)n2C,active: 16.4 µM,
O=C(N/N=C/c1coc2ccccc2c1=O)c1cn(-c2ccccc2)nc1-c1ccc(F)cc1,"inconclusive [inhibitor, single point]",
CCOCCCNc1nc2ccccc2n2c(CC)nnc12,"inconclusive [inhibitor, single point]",
CCOC(=O)c1cc(OC(C)=O)c2ccc(OC)c(OC)c2c1,active: 23.1 µM,
CN(C(=O)C1CCC(CNS(=O)(=O)c2cccc3cccnc23)CC1)C1CCCCC1 (stereo unspecified),active: 14.6 µM,
CC(C)CCOc1ccc(C2(C)NC(=O)NC2=O)cc1 (stereo unspecified),inactive,
COc1ccccc1/C=N/Nc1nc(C)cc(=O)[nH]1,inactive,
COC(=O)[C@]1(C)N[C@H](c2ccc(-c3ccccc3)cc2)[C@@H]2C(=O)N(C)C(=O)[C@@H]21,"inconclusive [inhibitor, single point]",
Cc1cccc(NC(=O)C2CCCN(S(=O)(=O)c3c(C)nn(C)c3C)C2)c1 (stereo unspecified),"inconclusive [inhibitor, single point]",
O=C(NC1CCCC1)C1C(c2ccccc2)=Nc2ccccc2N1C(=O)c1cc(Cl)cc(Cl)c1 (stereo unspecified),active: 29.1 µM,
COc1cccc(/C=C/C(=O)OCC(=O)NCCCc2ccccc2)c1OC,inactive,
CCC(=O)c1ccc(OCc2ccc(C(=O)c3ccccc3)cc2)cc1,active: 8.2 µM,
CC(NC(=O)COC(=O)/C=C/c1ccc(Cl)cc1)c1ccccc1 (stereo unspecified),"inconclusive [inhibitor, single point]",
Cc1ccc(NC(=O)NC(=O)N(C(C)C)S(=O)(=O)c2ccc(C)cc2)cc1,inactive,
CC1=C(C(=O)OCC(Cl)(Cl)Cl)N2C(=O)C(NC(=O)Cc3ccccc3)C2SC1 (stereo unspecified),,inconclusive: -30.9% [inhibitor]

SMILES,Potency,"activity change, negative = growth inhibition"
CCn1c2ccccc2nc2cc3c(cc21)c(Cl)c(=O)c1ccccc13,active: 5.8 µM,
COCCn1c(SCC(=O)NCc2ccc(F)cc2)nc2ccccc21,inactive,
Cc1ccccc1C(=O)NNC(=O)/C=C\C(=O)O,"inconclusive [inhibitor, single point]",
CCn1cc2nc(SCC(=O)Nc3ccccc3F)n(Cc3ccccc3)c(=O)c2n1,"inconclusive [inhibitor, single point]",
COc1ccc(C2NC(=S)NC3=C2CCc2ccccc23)cc1OC (stereo unspecified),"inconclusive [inhibitor, partial curve]",
Cc1cccc(C)c1-n1nnnc1C(CCc1ccccc1)N1CCN(C/C=C/c2ccccc2)CC1 (stereo unspecified),"inconclusive [inhibitor, single point]",
CCN(CC)C(=O)COc1ccc(/C(C)=N/NC(=O)c2ccccc2-n2cccc2)cc1,"inconclusive [inhibitor, single point]",
COc1ccc2occ(C(=O)c3coc4ccc(O)c(CN(C)C)c34)c2c1,"inconclusive [inhibitor, single point]",
COc1cc(-c2nc(-c3ccccn3)no2)cc(OC)c1OC,,inconclusive: -34.6% [inhibitor]
COc1ccc(N2CCN(C(C)C(=O)N3CCc4ccccc43)CC2)cc1 (stereo unspecified),"inconclusive [inhibitor, partial curve, poor fit]",
Cc1cn(C2CCCCC2)c(=O)[nH]c1=O,inactive,
CCOC(=O)c1cnc(SC)nc1Sc1ccccc1Cl,"inconclusive [inhibitor, single point]",
c1csc(-c2csc3nc(CN4CCOCC4)nc(NCc4ccc5c(c4)OCO5)c23)c1,"inconclusive [inhibitor, single point]",
COc1ccc(Cl)cc1S(=O)(=O)Nc1cccc(-c2ccc(N3CCCC3)nn2)c1,inactive,
CCOC(=O)c1c(NC(=O)CSc2nnc(Cc3csc(N)n3)n2C)sc(C)c1C,,inconclusive: -31.4% [inhibitor]
O=C(CN1CCOCC1)N/N=C/c1ccccc1,inactive,
CC(=O)N1N=C(c2ccco2)CC1c1ccc(C)cc1 (stereo unspecified),"inconclusive [inhibitor, full curve, poor fit]",
COc1ccccc1CNc1ccnc(-c2cccc(C#N)c2)n1,"inconclusive [inhibitor, single point]",
Cc1ccc[n+](-c2nc([O-])sc2C=O)c1,inactive,
CCCCC(NC(C)=O)c1nc2ccccc2[nH]1 (stereo unspecified),inactive,
Cc1c(O)cc2n(c1=O)-c1ccc(Cl)cc1C2(C)C,,inconclusive: -34.6% [inhibitor]
COc1ccc(NC2=CC(=O)CC(c3ccccc3)C2)c(OC)c1 (stereo unspecified),active: 3.26 µM,
NCC12CC3CC(C1)CC(CN)(C3)C2,"inconclusive [inhibitor, partial curve]",
COc1ccc(CCNC(=O)Cn2cnc3sc(C)c(-c4ccc(F)cc4)c3c2=O)cc1OC,"inconclusive [inhibitor, single point]",

SMILES,Potency,"activity change, negative = growth inhibition"
Cn1ccc2ccc(C3=CC(=O)C[C@H](c4ccc(F)cc4)C3)cc21,active: 18.4 µM,
CC(C(=O)NC1C=CS(=O)(=O)C1)N1C(=O)/C(=C\c2ccccc2)SC1=S (stereo unspecified),"inconclusive [inhibitor, partial curve]",
CC(=O)C[C@H]1c2cc(F)cc(F)c2S(=O)(=O)N1C1CCN(Cc2ccccc2)CC1,active: 3.98 µM,
CCOC(=O)c1nnn(-c2nc(N3CCCC3)nc(N3CCCC3)n2)c1-c1ccccc1,"inconclusive [inhibitor, single point]",
Cc1cnc(CNc2ncncc2-c2cccc(C#N)c2)cn1,inactive,
CCc1nc2ccc(C(=O)NCCC(C)C)cn2c1N(C)Cc1nccs1,"inconclusive [inhibitor, single point]",
O=C(Cc1ccc2c(c1)OCCO2)Nc1cc(C(F)(F)F)ccc1N1CCOCC1,"inconclusive [inhibitor, single point]",
O=C(Nc1ncccn1)c1cc(-c2cccc(Br)c2)nc2ccccc12,"inconclusive [inhibitor, single point]",
O=C(C1CC12CCCC2)N1CCC(CO)(Cc2ccccc2Cl)CC1 (stereo unspecified),inactive,
N/C(=N\OC(=O)c1cc(-c2ccccc2)nc2ccccc12)c1ccc(Cl)cc1,"inconclusive [inhibitor, single point]",
CC1CCN(S(=O)(=O)c2cn(CC(=O)Nc3ccc(OC(F)(F)F)cc3)cn2)CC1,inactive,
Nc1cc(=O)[nH]c(=O)n1CCCc1ccccc1,inactive,
COc1ccc(CCNC(=O)CN(c2ccc(C)cc2)S(=O)(=O)c2c(C)noc2C)cc1OC,"inconclusive [inhibitor, single point]",
CCOC(=O)c1c(S(=O)(=O)NCC(=O)N2CCN(c3cc(C)ccc3C)CC2)c(C)n(C)c1C,"inconclusive [inhibitor, single point]",
Cc1cccc(NC(=O)CCN2CCN(c3ccccc3F)CC2)c1,"inconclusive [inhibitor, partial curve]",
CCOC(=O)N1CCN(C(=O)c2cc(C)c3c(C)nn(-c4ccccc4)c3n2)CC1,"inconclusive [inhibitor, single point]",
CCN(CC)C(=O)[C@H]1C[C@H](CC(=O)NCCCN(C)C)C(=O)N2CCc3c([nH]c4ccc(Cl)cc34)[C@]12C,"inconclusive [inhibitor, single point]",
C[C@H](CO)N1C[C@H](C)[C@@H](CN(C)Cc2ccc(C(=O)O)cc2)Oc2ccc(NS(C)(=O)=O)cc2C1=O,inactive,
CCCCCn1c(=O)[nH]c2cc(C(=O)NCCN3CCCCC3C)ccc2c1=O (stereo unspecified),,inconclusive: -30.3% [inhibitor]
CC(=O)Nc1ccc(C(=O)COC(=O)C2CC3CCCC(C2)C3=O)cc1 (stereo unspecified),inactive,
CNC(=O)CC(CC(=O)c1ccccc1)c1ccccc1 (stereo unspecified),inactive,
Cc1ccc(C(=O)Oc2ccc(Cl)c3cccnc23)cc1[N+](=O)[O-],active: 20.6 µM,
Cc1nc2ccc(Br)cn2c1C(=O)N/N=C\c1ccccc1Cl,"inconclusive [inhibitor, partial curve]",
